# The full ranking holds about 33,000 sequences; the median of “E-score (-0.5 to 0.5)” is about -0.012, and the highest 2% start at about 0.27. The list shows a part of the results.
# Molecular target: T1, Vhr1 (UniProt P40522)
# T1 sequence: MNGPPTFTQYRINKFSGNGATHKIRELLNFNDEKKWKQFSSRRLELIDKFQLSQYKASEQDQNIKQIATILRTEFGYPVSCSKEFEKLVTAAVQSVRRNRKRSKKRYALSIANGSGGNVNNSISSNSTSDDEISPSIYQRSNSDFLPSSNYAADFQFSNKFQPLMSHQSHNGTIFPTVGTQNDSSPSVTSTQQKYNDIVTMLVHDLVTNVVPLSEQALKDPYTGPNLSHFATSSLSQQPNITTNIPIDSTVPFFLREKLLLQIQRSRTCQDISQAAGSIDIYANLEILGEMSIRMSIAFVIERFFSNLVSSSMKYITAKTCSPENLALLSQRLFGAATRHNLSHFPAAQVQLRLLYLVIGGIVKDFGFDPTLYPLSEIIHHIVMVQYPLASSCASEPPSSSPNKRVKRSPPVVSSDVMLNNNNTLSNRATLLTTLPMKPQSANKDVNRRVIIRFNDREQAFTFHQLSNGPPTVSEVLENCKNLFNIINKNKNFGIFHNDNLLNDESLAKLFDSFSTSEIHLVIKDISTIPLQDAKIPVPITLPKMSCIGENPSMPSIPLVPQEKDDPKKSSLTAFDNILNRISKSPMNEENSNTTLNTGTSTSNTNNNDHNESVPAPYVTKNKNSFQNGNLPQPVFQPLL
# Test: PBM E-score (8-mer binding enrichment) (E-score (-0.5 to 0.5)); higher = stronger / more preferred TF binding; most listed sequences are background and not binding sites
# Conditions: protein concentration: 200 nM; construct: GST-full length
# Summary of the method: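 Yeast transcription factors carrying a GST tag, as full-length proteins or DNA-binding domains, were produced by PURExpress in vitro transcription/translation. About 100-200 nM protein was applied to universal all-10-mer Agilent arrays, double-stranded by primer extension on fresh or once-stripped slides. Bound protein was detected with fluorescent anti-GST, and scans were normalised with masliner. The Universal PBM Analysis Suite gave each ungapped eight-base word, pooled with its reverse complement, an E-score, a modified Wilcoxon-Mann-Whitney statistic.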
row,Sequence,PBM E-score
1,CCTGCAGC,-0.139
2,CCGTTACA,0.0703
3,GCCGCATA,0.0965
4,ACTCAACG,0.171
5,ACGGCGCT,-0.13
6,ACTTAAGG,-0.0956
7,ATAGGTGG,0.0474
8,ATTGACCC,-0.00745
9,AACAAGGG,-0.191
10,ATATTTCA,-0.0213
11,CTCCCAAA,0.0311
12,AAGATCTG,0.0327
13,CGCATCAA,0.11
14,AAAATGGT,0.0699
15,AAACAAAC,-0.157
16,GGCTCATA,0.0151
17,CATTCCGA,0.0348
18,CTGATAGC,0.0382
19,CAAATCAG,-0.0128
20,GGGGCCCA,-0.0152
21,TACGACGA,0.137
22,ACCCCAAA,0.156
23,CCTAAATA,-0.103
24,AGCACCTC,-0.13
25,CGGTTACC,0.189

row,Sequence,PBM E-score
1,GCGTCAAA,0.0589
2,ACACGCGT,0.129
3,AGTTGCTC,-0.207
4,GCAACGCC,-0.0569
5,ATATTAAG,0.0995
6,AAAACTTT,-0.187
7,AACGGCCA,-0.145
8,CACTGGTC,0.092
9,AAATGACC,-0.0604
10,GGCCTAAA,-0.246
11,ACAGACAG,0.179
12,ACCAGTGG,0.0651
13,ACTGTCGA,0.0975
14,GACGTCGA,0.12
15,ATCCTTTC,-0.15
16,GGCGGGGA,0.409
17,CCGATCTA,-0.0721
18,ACAGTGGT,0.184
19,CGAAACGC,-0.216
20,AGTAGCGG,0.0569
21,GAATGCCA,0.0433
22,AGGTATAG,0.0604
23,CACGACCA,0.168
24,CTACCTGC,-0.0175
25,ATCCGAGA,0.109

row,Sequence,PBM E-score
1,AGCTGGGA,0.0468
2,CACAGCCA,0.21
3,AGGCCGTC,-0.0289
4,CGCCCAGC,0.208
5,GAGTACCC,0.0663
6,GCGTAGGA,-0.00723
7,CTGAACAC,0.246
8,AGCCATCC,0.106
9,ATCGATTG,0.0202
10,AACGCCAG,0.234
11,GCAAGGGC,-0.153
12,CCGGCACC,0.106
13,CTTATGCC,-0.0185
14,CACGCGCG,-0.00034
15,TTGCCAAA,-0.0393
16,AACCCTGA,0.286
17,TACAAACA,0.194
18,CATGCCTA,-0.0143
19,CCCTCGCC,0.0976
20,GAACATGA,0.206
21,CCGCTTAC,-0.0818
22,CGAAATTA,0.0249
23,CATCCCGG,0.00723
24,ACCTGTAG,-0.0729
25,GTGGCAGA,-0.179

row,Sequence,PBM E-score
1,ATGTGCCG,-0.123
2,ACAAGAAG,0.0641
3,ATAAGAGG,0.116
4,CAAGTGCG,-0.0205
5,CGCAGAAG,-0.0751
6,ATACCGGA,0.0174
7,AGGCCGGG,-0.0907
8,AGATCTCC,-0.149
9,GGGTCGAA,-0.0102
10,TCGCGCGA,0.0513
11,AGAACTAG,-0.218
12,ATTGATCC,-0.0749
13,TAACGTTA,-0.148
14,CGAATACC,0.164
15,AGATCCAA,-0.136
16,AAACTCAC,0.0426
17,ACGACTGC,-0.0133
18,GAGCCACA,0.155
19,ATAGATTG,0.226
20,CGCCAAAG,-0.116
21,CTGTGCTA,0.0587
22,GCCTTGTA,-0.204
23,CTATCGCA,-0.0431
24,ATGTGACA,0.033
25,CGTAGGTA,-0.112

row,Sequence,PBM E-score
1,CCCAATCA,0.0557
2,CCCATAAC,0.0584
3,AGTTTATA,-0.0744
4,ATCAGTAG,0.0725
5,ATCCGACC,0.0441
6,ACTGCGCA,0.129
7,AATTACTG,0.166
8,ACCCCATC,0.107
9,CATGGACC,-0.0938
10,ACAGTTGA,0.0298
11,AGGTAAAG,-0.0742
12,ACAAGCCC,-0.0271
13,CCGGACCA,0.07
14,ACTTGCGA,0.0242
15,AAGTATAT,-0.00851
16,ATGGCGTC,0.136
17,AGCTTCCG,-0.136
18,CCATGTCG,0.118
19,CGAATTAA,-0.0894
20,AAACGTGC,-0.204
21,AACAGCCT,-0.132
22,ATCCTGAC,0.169
23,GCCACCGA,0.04
24,AGACCGAC,0.2
25,AGCACTGA,0.135

row,Sequence,PBM E-score
1,ACGTTATC,-0.115
2,CGCTAACA,-0.0839
3,TCTTGCAA,0.0699
4,ATATTTTA,-0.0713
5,CGAGTATA,0.139
6,ACATATGC,0.0524
7,CCCAGGGA,-0.0351
8,CGAAATCC,-0.0182
9,TGGAGTAA,0.118
10,GTGTCCGA,-0.143
11,AAGACCTT,-0.226
12,ATTCCGTC,-0.0753
13,TGTCCAAA,-0.113
14,GTTGCGCA,-0.043
15,CCCGCTTC,0.0365
16,GTTAAAAA,-0.21
17,ATCAATTC,-0.0503
18,ACCAGCCT,-0.0798
19,GCTTGTCC,-0.126
20,CCAGCGAG,0.181
21,CTTGGAAA,-0.0499
22,AGGAGGAT,-0.0351
23,CACCGGGC,-0.0093
24,GGGGGTGA,0.132
25,AACCCACT,0.246

row,Sequence,PBM E-score
1,AAGCCTAC,-0.234
2,CCTGAACC,0.246
3,GTATACAC,0.0427
4,AGCCGGAG,0.205
5,AGGATCGA,-0.004
6,ACAGGCAT,0.0293
7,CCTTGGAC,-0.222
8,CTTAGTGC,-0.0448
9,GGGGACAC,0.0467
10,AGCAAGCG,0.0653
11,GGCAGCCC,0.0305
12,CCATGTCA,-0.0314
13,GAAGGCAC,-0.0554
14,CTTGGTAA,-0.11
15,CGGTTGGC,0.195
16,GGCAGAAC,0.0769
17,GAATCGTC,0.137
18,ATATTACA,0.116
19,AATATAAA,0.146
20,AGTCTAGC,-0.0402
21,GACATCCC,0.0989
22,ATCTTTGG,-0.22
